Hit rate of the full screen: of about 310,000 compounds, about 2,200 (0.71%) showed an effect of 50% or more. Effects have a minus sign here. The list shows a part of the results.

Chain of human ether-à-go-go-related gene (hERG) potassium channel (Q12809 whole entry, looked up): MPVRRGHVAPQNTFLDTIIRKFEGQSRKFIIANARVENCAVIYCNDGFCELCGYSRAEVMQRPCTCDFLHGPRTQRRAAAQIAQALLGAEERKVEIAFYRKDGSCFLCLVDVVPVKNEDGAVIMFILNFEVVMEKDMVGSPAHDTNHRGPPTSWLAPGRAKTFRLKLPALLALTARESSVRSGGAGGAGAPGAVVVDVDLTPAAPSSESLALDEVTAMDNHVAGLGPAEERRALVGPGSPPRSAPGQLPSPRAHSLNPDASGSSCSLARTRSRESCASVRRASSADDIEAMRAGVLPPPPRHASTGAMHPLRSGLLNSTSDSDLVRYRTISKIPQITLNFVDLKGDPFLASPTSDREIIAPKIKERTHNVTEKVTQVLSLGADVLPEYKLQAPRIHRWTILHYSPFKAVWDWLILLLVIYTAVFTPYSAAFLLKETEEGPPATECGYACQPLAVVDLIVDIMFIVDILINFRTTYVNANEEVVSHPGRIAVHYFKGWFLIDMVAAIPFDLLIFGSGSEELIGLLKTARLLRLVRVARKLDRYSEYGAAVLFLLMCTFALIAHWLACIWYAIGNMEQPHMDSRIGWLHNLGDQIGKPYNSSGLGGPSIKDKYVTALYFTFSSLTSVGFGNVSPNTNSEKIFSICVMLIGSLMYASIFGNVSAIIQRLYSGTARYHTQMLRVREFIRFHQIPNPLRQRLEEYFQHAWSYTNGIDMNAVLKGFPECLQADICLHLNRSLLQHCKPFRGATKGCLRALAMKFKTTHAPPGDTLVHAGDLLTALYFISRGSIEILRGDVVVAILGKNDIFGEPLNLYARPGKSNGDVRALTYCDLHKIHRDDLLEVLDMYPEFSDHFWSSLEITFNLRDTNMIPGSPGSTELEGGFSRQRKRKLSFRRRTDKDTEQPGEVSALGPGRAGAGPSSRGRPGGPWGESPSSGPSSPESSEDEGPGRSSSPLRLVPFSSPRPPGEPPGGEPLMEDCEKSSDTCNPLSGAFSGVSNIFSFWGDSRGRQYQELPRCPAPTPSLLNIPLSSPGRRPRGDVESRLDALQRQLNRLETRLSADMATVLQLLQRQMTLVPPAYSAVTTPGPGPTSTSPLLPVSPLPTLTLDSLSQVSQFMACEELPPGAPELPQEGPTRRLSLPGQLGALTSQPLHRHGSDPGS

This experiment has as its target human ether-à-go-go-related gene (hERG) potassium channel (human, UniProt Q12809). The experiment is described as follows: primary screen, population patch clamp on CHO cells stably expressing hERG.
Regarding `COc1ccc2c(c1)CCc1c(C(=O)N3CC4(C)CC3CC(C)(C)C4)noc1-2` (stereo not shown), the “hERG current change (%, negative = inhibition) at 1uM” value was -8.3%. With `Cc1c(C(=O)N(C)c2ccccc2Cl)cnn1-c1ccccc1`, the “hERG current change (%, negative = inhibition) at 1uM” value turned out to be 7.2%. In the case of `CC(C)Cc1nc(SCC(=O)NCc2ccccc2)n[nH]1` it was 10.8%; in that of `O=C(CC1C(=O)NCCN1Cc1ccc(F)cc1Cl)NCc1ccon1` (stereo not shown), 17.1%. On to `Cc1cc([N+](=O)[O-])nn1CC(=O)N1c2ccccc2CC1C` (stereo not shown), for which the “hERG current change (%, negative = inhibition) at 1uM” value worked out at 8.06%. For the molecule `c1cncc(-c2nc(-c3ccc4c(c3)OCO4)cs2)c1`, the “hERG current change (%, negative = inhibition) at 1uM” value stood at 17.3%. For `O=c1[nH]cc(S(=O)(=O)NCc2ccccc2)c(=O)[nH]1`, the “hERG current change (%, negative = inhibition) at 1uM” value was determined as 17.4%.

Turning to `C/C(Cl)=C\Cn1c(N2CCCC2)nc2c1c(=O)[nH]c(=O)n2C`, the “hERG current change (%, negative = inhibition) at 1uM” value was -3.57%.

Take `CC1=C/C(=N\NC(=O)c2cccs2)CC(C)(C)C1`: the “hERG current change (%, negative = inhibition) at 1uM” value stood at 11%. Regarding `O=C(CN(c1cccc([N+](=O)[O-])c1)S(=O)(=O)c1ccccc1)N1CCCCC1`, the “hERG current change (%, negative = inhibition) at 1uM” value was determined as 2.23%.

As to `COc1ccc(OC)c(Cc2nnc(CCC(=O)NC3CCCC3)o2)c1`, the “hERG current change (%, negative = inhibition) at 1uM” value was 7.43%. Under `CN(C)C(=S)c1ccccc1` stands 2.16%. For `Cc1ccc(/C=C(\NC(=O)c2ccc(C)cc2)C(=O)NCCCn2ccnc2)cc1`, the “hERG current change (%, negative = inhibition) at 1uM” value is -87%. For `COc1ccccc1C(=O)NCC(=O)NC1CCCc2ccccc21` (stereo not shown), the “hERG current change (%, negative = inhibition) at 1uM” value is 5.96%. On to `CCn1c(/C=C/c2cc(Br)ccc2O)nc2ccccc2c1=O`, for which the “hERG current change (%, negative = inhibition) at 1uM” value is given as 17%.

As to `Cc1no[n+]([O-])c1COc1ccc(/C=N/n2nnnc2N)cc1`, the “hERG current change (%, negative = inhibition) at 1uM” value came to 6.73%. In the case of `CC(C)OP(=O)(c1ccc(N(C)C)cc1)C(O)c1c(Cl)cccc1Cl` (stereo not shown) it was -3.92%. Regarding `COc1ccc(CN(C(=O)CCC(=O)Nc2cc(C)on2)C(C(=O)NC(C)(C)C)c2cccc(OC)c2OC)cc1` (stereo not shown), the “hERG current change (%, negative = inhibition) at 1uM” value is 10.1%. Under `COc1ccc(CC(=O)NNC(=O)CCC(=O)Nc2cc(C)ccc2C)cc1` stands 12.8%. For `COc1ccc(NC(=S)NCCc2c[nH]c3ccccc23)c(OC)c1`, the “hERG current change (%, negative = inhibition) at 1uM” value is recorded as 9.68%. For the molecule `Cc1cc(C)n2nc(SCC(=O)N(C)C3CCCCC3)nc2n1`, the “hERG current change (%, negative = inhibition) at 1uM” value was -9.19%. Under `CCC(=O)Nc1cccc(C2=NOC3(C2)C[C@H](C(N)=O)N(C(=O)c2ccc(Cl)cc2)C3)c1` (stereo partly shown) stands 12.3%; under `Cc1ccc(C(=O)NCC2CCCO2)o1` (stereo not shown), 3.43%; under `Cc1ccc(NP(=O)(c2ccccc2)c2nc3ccccc3s2)cc1` (stereo not shown), 2.14%. Consider `Cc1cc2c(c(=O)o1)C(CC(C)C)C(C#N)=C(N)O2` (stereo not shown), for which the “hERG current change (%, negative = inhibition) at 1uM” value came to 0.104%.

The record behind these values is PMC4336329 (PLoS ONE, 2015).
